# Assay results as given in PubChem BioAssay (NCATS).
# Some of the results follow. These are further read-outs of the screen, such as a control signal, another cell line or another target. No call is given for them. The list favours compounds with an active or inconclusive main result. The note in brackets gives the kind of curve behind each potency; many fits are weak.
# Test: Cell-based coincidence reporter assay to measure PMP22 gene transcription in S16 Pmp22-F2sN cells - Confirmatory screen (AID 1508646)
# Details: S16 Schwann cells Pmp22-F2sN, dual luciferase, 24 h
# Method in brief: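 Coincidence reporter read as sequential FLuc then NLuc luminescence (Nano-Glo Dual-Luciferase, 10 min each). Engineered S16 Pmp22-F2sN Schwann cells, 500-1,000 per well in DMEM/10% FBS, were exposed to compounds for 24 h, 37C.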
# [1] = measured here: FLuc reporter channel
# [2] = measured here: NLuc reporter channel
# Tags tell the direction and shape of the fitted curve.
SMILES,AC50 [1],AC50 [2]
O=C(NC1CCN(Cc2ccccc2)CC1)c1ccc(Cn2c(=O)c3ccccc3n(Cc3ccc(Cl)cc3)c2=O)cc1,"9.68 µM [falling, full curve]","12.2 µM [falling, full curve]"
CCCCn1c(=N)n(CCOc2ccccc2OC)c2ccccc21,"24.3 µM [falling, partial curve]","30.6 µM [falling, partial curve]"
Cc1ccc(OCCSc2nc3ccc(NC(=O)COc4ccc(C)cc4)cc3s2)cc1,"30.6 µM [falling, single point]","34.3 µM [falling, single point]"
CCOC(=O)COc1ccc(C)cc1C(=O)c1ccn2nc(-c3ccc(F)cc3)cc2n1,"8.62 µM [falling, full curve, poor fit]","19.3 µM [falling, partial curve]"
CCOc1ccccc1Nc1sc(C(=O)c2ccccc2)c(N)c1S(=O)(=O)c1ccc(C)cc1,"10.9 µM [falling, full curve, poor fit]","12.2 µM [falling, full curve, poor fit]"
CC1CCc2c(cc(-c3ccccc3)n2-c2ccc(C(=O)NC(C)C)cc2)C1 (stereo not drawn),"21.7 µM [falling, partial curve]","24.3 µM [falling, partial curve]"
O=C(NCCCN1CCN(c2ccc(F)cc2)CC1)c1ccc2nc(Cc3ccccc3)oc2c1,"21.7 µM [falling, partial curve]","24.3 µM [falling, partial curve, poor fit]"
CCOc1ccc(NC(=O)CSc2oc(-c3ccc(F)cc3)nc2S(=O)(=O)c2ccc(C)cc2)cc1,"13.7 µM [falling, full curve]","15.3 µM [falling, full curve]"
CCN(CC)CCCNC(=O)c1ccc2c(c1)sc1nc(-c3ccc(C)cc3)cn12,"13.7 µM [falling, full curve]","15.3 µM [falling, full curve]"
CCCCS(=O)(=O)c1nc(-c2ccc(Br)cc2)cc(-c2ccccc2)c1C#N,"7.69 µM [falling, full curve]","10.9 µM [falling, full curve]"
CCOC(=O)c1ccccc1NC(=O)c1nn(C)c2c1COc1ccccc1-2,"17.2 µM [falling, partial curve]","19.3 µM [falling, partial curve]"
COc1cc(NS(=O)(=O)c2cc(Br)cc3c2N(C(=O)C2CC2)CC3)cc(OC)c1,"17.2 µM [falling, partial curve]","19.3 µM [falling, partial curve]"
CCCSc1ncc(Cl)c(C(=O)Nc2ccc(S(=O)(=O)N3CCCCC3C)cc2)n1 (stereo not drawn),"21.7 µM [falling, partial curve, poor fit]","30.6 µM [falling, single point]"
O=S(=O)(c1ccc(Cl)cc1)c1nnn2c1nc(N1CCCCC1)c1sccc12,"34.3 µM [falling, single point]","43.2 µM [falling, single point]"
COc1ccc(Nc2nc3c(S(=O)(=O)c4ccccc4)nnn3c3ccc(Cl)cc23)cc1,"15.3 µM [falling, partial curve]","12.2 µM [falling, partial curve]"
CCc1ccc2ncc(C(=O)c3ccc(C)c(C)c3)c(N3CCC(C(N)=O)CC3)c2c1,"24.3 µM [falling, partial curve, poor fit]","19.3 µM [falling, partial curve]"
O=C(CCS(=O)(=O)c1nc(-c2cccs2)cc(C(F)(F)F)n1)Nc1ccc(OC(F)(F)F)cc1,"6.11 µM [falling, full curve]","12.2 µM [falling, partial curve]"
Cc1ccc(C)n1-c1nnc(N2CCCC(C(=O)NCc3cccc(F)c3)C2)s1 (stereo not drawn),"27.3 µM [falling, single point]","21.7 µM [falling, single point]"
COc1ccc(OC)c(CNC(=O)c2c(C)oc3ncn(CC(C)C)c(=O)c23)c1,"19.3 µM [falling, partial curve]","24.3 µM [falling, partial curve]"
